In the supplement of paper PMC10126150:
Sequences with one replicate were seen in a single cluster, so their values are uncertain.

Test system: ATP
Assay: switch fluorescence ratio, 500 uM ATP over buffer (Cy3 cluster intensity, sum of 5 cycles each) (fold (ratio)); higher = stronger signal-on switching upon ATP binding; sequences stand for … in TCGTCGGCAGCGTCAGATGTGTATAAGAGACAGTTTTTTTTTTTTTTTTTTTTTTTTT…TC
Conditions: aptamer strand: ATP DNA aptamer (quencher-CACCTGGGGGAGTATTGCGGAGGAAGG + anchor), 100 nM annealed; ATP concentration: 500 uM; one replicate
In short: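 The quencher-labelled ATP aptamer, at 100 nM, was annealed to Cy3-labelled switching-strand clusters on a modified Illumina MiSeq flow-cell. The clusters were imaged in selection buffer, then after 15 min with 500 uM ATP at 22 °C, and this buffer/ATP cycle ran five times with NaOH stripping and re-annealing between runs. Per-cluster fluorescence ratios, summed target-cycle over summed buffer-cycle Cy3 intensity, were averaged per switch-domain sequence. Clusters outside 100-1000 RFU were excluded.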
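Further: ATP exposure 15 min at 22 °C before imaging.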

TAACTGATGC was tested, and the switch fluorescence ratio was 0.993.
GTCCCAAGGG was tested, and the switch fluorescence ratio was 1.08.
AACTTACGA gave a switch fluorescence ratio of 1.29.
For ATATAAGGAG, the switch fluorescence ratio was 0.98.
For ATGTTTATGT, the switch fluorescence ratio was 1.1.
For GGACCAGTTC, the switch fluorescence ratio was 1.06.
In the case of TCAAGCTGC, the switch fluorescence ratio is reported as 1.12.
Sequence GGGGACCACT has a switch fluorescence ratio of 0.974.
ATTCAGTTCC was tested, and the switch fluorescence ratio was 1.08.
TTCCCGCCTG gave a switch fluorescence ratio of 1.06.
AAAGGCTGTT gave a switch fluorescence ratio of 1.06.
With CACGTCAGGT the switch fluorescence ratio was 1.1.
Work on TTCTAAAGTC yielded a switch fluorescence ratio of 0.991.
Work on ACTATGTTCT yielded a switch fluorescence ratio of 1.02.
With GCGACGCCTT the switch fluorescence ratio was 1.24.
For GGTGCTATTC, the switch fluorescence ratio was 1.02.
ATCTTACTAT showed a switch fluorescence ratio of 1.01.
GGACTCAGCT gave a switch fluorescence ratio of 1.07.
GCTCAAACAT showed a switch fluorescence ratio of 1.03.
In the case of ATCACGCTTG, the switch fluorescence ratio is reported as 1.01.
GGGTCATA showed a switch fluorescence ratio of 1.02.
Sequence AAACTCTCTA has a switch fluorescence ratio of 0.991.
Sequence GCCAGCAGTC has a switch fluorescence ratio of 1.23.
Work on TCCTTTAGGG yielded a switch fluorescence ratio of 1.03.
TCAGGTAGGA gave a switch fluorescence ratio of 0.994.
Sequence AACCACTAAC has a switch fluorescence ratio of 1.23.
For CTGTTGGT, the switch fluorescence ratio was 0.977.
Sequence TTTGAGATAA has a switch fluorescence ratio of 1.01.
Work on CTGTGGCGGA yielded a switch fluorescence ratio of 1.04.
In the case of GAAATTACGG, the switch fluorescence ratio is reported as 1.03.
TTTCCAAGAT showed a switch fluorescence ratio of 0.989.
CTCCCAAGGT was tested, and the switch fluorescence ratio was 2.71.
Work on CTGATCGGCG yielded a switch fluorescence ratio of 0.931.
With ATTGCTCAC the switch fluorescence ratio was 0.977.
For GTCCATCAGC, the switch fluorescence ratio was 1.03.
ACGCGGCATA was tested, and the switch fluorescence ratio was 1.09.
CGGATATACA was tested, and the switch fluorescence ratio was 1.03.
ATACTCCCAG gave a switch fluorescence ratio of 1.49.
With CGGATGAACA the switch fluorescence ratio was 1.01.
Sequence CTGGCGTCAA has a switch fluorescence ratio of 1.64.
In the case of CCGAAACAGT, the switch fluorescence ratio is reported as 1.95.
AATAGTCGGA gave a switch fluorescence ratio of 0.959.
For TAGTCGAAC, the switch fluorescence ratio was 1.05.
Sequence TTGACTGAA has a switch fluorescence ratio of 1.06.
Work on CCTGAATCAA yielded a switch fluorescence ratio of 1.07.
In the case of TAGAGGCTT, the switch fluorescence ratio is reported as 0.978.
For CATGCTGAAC, the switch fluorescence ratio was 1.04.
GATAAGTTTT gave a switch fluorescence ratio of 0.992.
AAGAGCCCAG gave a switch fluorescence ratio of 1.06.
TGGAGGGTGA showed a switch fluorescence ratio of 1.02.
CCTGATATCT was tested, and the switch fluorescence ratio was 0.995.
TGCATTATAT showed a switch fluorescence ratio of 0.974.
TTTAGGTACC was tested, and the switch fluorescence ratio was 1.01.
Work on AGAAACGATC yielded a switch fluorescence ratio of 0.989.
Work on TAGGCCGGAG yielded a switch fluorescence ratio of 1.03.
Sequence CATCAGTGCG has a switch fluorescence ratio of 1.05.
With TAAGGCCAGC the switch fluorescence ratio was 1.02.
In the case of CGATGTAGGG, the switch fluorescence ratio is reported as 0.988.
Work on GTTAGATTAG yielded a switch fluorescence ratio of 0.997.
AAGGGGCCCG was tested, and the switch fluorescence ratio was 1.01.
In the case of AGTTTAACA, the switch fluorescence ratio is reported as 0.997.
TATGAAAATA showed a switch fluorescence ratio of 0.953.
With TCACGGATAG the switch fluorescence ratio was 1.03.
Sequence TAAATAATCC has a switch fluorescence ratio of 1.9.
For AGCCATGTGG, the switch fluorescence ratio was 0.988.
CATGGTAACC gave a switch fluorescence ratio of 0.991.
AGCGTGACGG showed a switch fluorescence ratio of 1.01.
Work on CCAAGCGTAT yielded a switch fluorescence ratio of 1.25.
CGTCCCGCGT showed a switch fluorescence ratio of 1.29.
GCCTTCTAAG was tested, and the switch fluorescence ratio was 1.04.
CCACCTGCAT showed a switch fluorescence ratio of 4.84.
GTACGCTAAT showed a switch fluorescence ratio of 1.51.
CGGATGGAAT gave a switch fluorescence ratio of 1.07.
Work on TGAAAACTTC yielded a switch fluorescence ratio of 1.04.
ACGAATGTA showed a switch fluorescence ratio of 1.01.
For AAACGGTAGT, the switch fluorescence ratio was 1.03.
TATTTAGTGT was tested, and the switch fluorescence ratio was 1.09.
Sequence GGGTGCACTG has a switch fluorescence ratio of 0.986.
CCGGGAGTTT gave a switch fluorescence ratio of 1.03.
In the case of CTTGGGCTTA, the switch fluorescence ratio is reported as 1.01.
For GCTTCGGCAT, the switch fluorescence ratio was 1.04.
Sequence ATAGCACTGT has a switch fluorescence ratio of 1.06.
Work on AGATTAAGA yielded a switch fluorescence ratio of 0.994.
GAGGAATCCG showed a switch fluorescence ratio of 1.05.
Work on TAGAGTGTGG yielded a switch fluorescence ratio of 0.999.
For ACAAACTAAT, the switch fluorescence ratio was 1.08.
GCTCTATTAC was tested, and the switch fluorescence ratio was 1.38.
With GTGACAGCAA the switch fluorescence ratio was 1.44.
In the case of CAGGATGGTG, the switch fluorescence ratio is reported as 1.02.
With TCCTGGGCAT the switch fluorescence ratio was 2.92.
With GTTCGGACAG the switch fluorescence ratio was 1.
GTGGTCCATA was tested, and the switch fluorescence ratio was 0.998.
With TAGAATTCGT the switch fluorescence ratio was 0.999.
CGTGGGCGGG showed a switch fluorescence ratio of 1.
Work on AAAAATTATC yielded a switch fluorescence ratio of 1.02.
For TACGCCGTAT, the switch fluorescence ratio was 1.13.
With TATAATCGTC the switch fluorescence ratio was 0.989.
TTTGGCGAGG gave a switch fluorescence ratio of 0.943.
With GAGTCCGTGC the switch fluorescence ratio was 1.41.
GGGACCCCGG gave a switch fluorescence ratio of 1.06.
TCAGTATTAG was tested, and the switch fluorescence ratio was 1.
With CGGGTGGTAC the switch fluorescence ratio was 1.03.
Sequence CTGCAATTGG has a switch fluorescence ratio of 4.29.
Sequence GGAGAGC has a switch fluorescence ratio of 0.896.
TGCCCCACAT was tested, and the switch fluorescence ratio was 1.02.
CCCAGGGACT gave a switch fluorescence ratio of 1.32.
In the case of ATCCAGCGGA, the switch fluorescence ratio is reported as 0.997.
ATGTAGCTCA gave a switch fluorescence ratio of 0.968.
Work on CATTCGACAG yielded a switch fluorescence ratio of 1.04.
With ATAGATGTAC the switch fluorescence ratio was 1.03.
Sequence CGGCATAATT has a switch fluorescence ratio of 1.02.
TTCTGTAGC showed a switch fluorescence ratio of 1.71.
For ATCTATCGCA, the switch fluorescence ratio was 1.15.
GGTACTCTTG was tested, and the switch fluorescence ratio was 0.999.
Work on CAAGCCGTGG yielded a switch fluorescence ratio of 0.993.
Sequence CTGGCTTAGC has a switch fluorescence ratio of 1.02.
Sequence AACGGGATTG has a switch fluorescence ratio of 0.99.
For CGGGCGTACG, the switch fluorescence ratio was 1.01.
TAAGGGCGTA gave a switch fluorescence ratio of 1.
In the case of GTGATGAGTG, the switch fluorescence ratio is reported as 0.984.
For CATGTTTAAA, the switch fluorescence ratio was 1.02.
In the case of TTAAGCTTTG, the switch fluorescence ratio is reported as 0.95.
Work on TCTAAGCACA yielded a switch fluorescence ratio of 1.24.
For ATCACAGATG, the switch fluorescence ratio was 1.
In the case of TTCCACCTCT, the switch fluorescence ratio is reported as 1.02.
For GGCTTTTGCG, the switch fluorescence ratio was 0.977.
In the case of CTGCTACCCC, the switch fluorescence ratio is reported as 1.33.
With CATGGGCCAA the switch fluorescence ratio was 1.02.
Work on ATTCCTCAAC yielded a switch fluorescence ratio of 1.35.
GAATAATGCG gave a switch fluorescence ratio of 0.992.
In the case of CAGGGGCGCT, the switch fluorescence ratio is reported as 1.18.
TTTACTTTGT was tested, and the switch fluorescence ratio was 0.975.
For GCGTACCGGT, the switch fluorescence ratio was 1.01.
AATAGGAGAC was tested, and the switch fluorescence ratio was 1.02.
Work on TATTGAACTC yielded a switch fluorescence ratio of 1.05.
For ATTGGATGG, the switch fluorescence ratio was 1.03.
In the case of CGACACCAT, the switch fluorescence ratio is reported as 1.07.
Sequence CTCAGTTGTA has a switch fluorescence ratio of 1.02.
Sequence CGGGAGCACA has a switch fluorescence ratio of 1.35.
TCTCGAGGCT showed a switch fluorescence ratio of 1.06.
ATTATTCAAG was tested, and the switch fluorescence ratio was 1.02.
For ATAGTCACCA, the switch fluorescence ratio was 1.04.
With CCAACTCTCC the switch fluorescence ratio was 1.26.
GATCTTCTAA was tested, and the switch fluorescence ratio was 0.993.
Work on TTCTGAAACC yielded a switch fluorescence ratio of 1.07.
CCATCCCTGA gave a switch fluorescence ratio of 1.
Work on GATCTATGAA yielded a switch fluorescence ratio of 0.997.
GTTAACTTTT was tested, and the switch fluorescence ratio was 0.954.
For ATGTATGTG, the switch fluorescence ratio was 0.962.
CAAGTTTCGC showed a switch fluorescence ratio of 0.963.
In the case of AGTTGAGCGT, the switch fluorescence ratio is reported as 0.987.
Sequence AAACTGGGAA has a switch fluorescence ratio of 0.992.
CTGAGAAGCG was tested, and the switch fluorescence ratio was 0.978.
TTTTCAATTA showed a switch fluorescence ratio of 1.
ATCCGCCTAT was tested, and the switch fluorescence ratio was 1.27.
Work on TTCCACGGTT yielded a switch fluorescence ratio of 1.01.
With AATCGTGACA the switch fluorescence ratio was 0.976.
CGTGCCGAAT was tested, and the switch fluorescence ratio was 0.992.
With AAGTCGAACC the switch fluorescence ratio was 0.987.
With TCGTCCGTTT the switch fluorescence ratio was 1.16.
CTGGTACGTG was tested, and the switch fluorescence ratio was 0.958.
With GAAAAGTAGG the switch fluorescence ratio was 1.02.
In the case of ACACAACCAC, the switch fluorescence ratio is reported as 1.3.
In the case of TGGATTGTGA, the switch fluorescence ratio is reported as 1.01.
AATGGGGAGG was tested, and the switch fluorescence ratio was 0.988.
Sequence AGGCCCTGAA has a switch fluorescence ratio of 0.999.
With GTAAACGTGT the switch fluorescence ratio was 1.01.
For CGGTCCATCG, the switch fluorescence ratio was 1.02.
For ATTGGGGTTA, the switch fluorescence ratio was 1.01.
Sequence CGCCTTTACG has a switch fluorescence ratio of 1.07.
TCGATCGTTA gave a switch fluorescence ratio of 1.01.
ATTGATTCAT showed a switch fluorescence ratio of 0.985.
For GGTGATATCG, the switch fluorescence ratio was 1.02.
AACCGAGCTG was tested, and the switch fluorescence ratio was 1.38.
With TACGTGCCAC the switch fluorescence ratio was 1.1.
Work on ACGGTTAGC yielded a switch fluorescence ratio of 1.1.
AATACGAATG was tested, and the switch fluorescence ratio was 0.992.
For TGTTCTCCCT, the switch fluorescence ratio was 1.04.
With TAAATCTT the switch fluorescence ratio was 1.03.
With CGTAGTTTGA the switch fluorescence ratio was 1.
Sequence CCCTACACGA has a switch fluorescence ratio of 1.26.
CTTACCTGT showed a switch fluorescence ratio of 1.
Sequence GAATGACACT has a switch fluorescence ratio of 1.02.
Sequence CACTATCGGG has a switch fluorescence ratio of 1.02.
In the case of CGGCACTGAA, the switch fluorescence ratio is reported as 0.995.
TGCCGCTCGG was tested, and the switch fluorescence ratio was 0.992.
With AGCATCAGGC the switch fluorescence ratio was 0.966.
With CGAATAGAAA the switch fluorescence ratio was 1.01.
Sequence AGTGAACATG has a switch fluorescence ratio of 1.01.
With GCGTGAAGG the switch fluorescence ratio was 1.06.
ATTATCGACC was tested, and the switch fluorescence ratio was 1.04.
In the case of GCCACGCATA, the switch fluorescence ratio is reported as 1.16.
AGGAGTCCTT gave a switch fluorescence ratio of 0.983.
TCTTTTTACC gave a switch fluorescence ratio of 1.04.
Sequence GGAGTTAACG has a switch fluorescence ratio of 0.911.
For TGGATTTCTA, the switch fluorescence ratio was 0.961.
Work on TACCGGTGGA yielded a switch fluorescence ratio of 1.02.
Work on AATTCTCCTC yielded a switch fluorescence ratio of 1.05.
For CGGTACGATG, the switch fluorescence ratio was 0.982.
Sequence AAAGGCCGTT has a switch fluorescence ratio of 1.
For TCCAAATTGC, the switch fluorescence ratio was 1.01.
